Laboratory results published in a collection of fitness landscapes (doi:10.1016/j.celrep.2020.107928).
In all, about 81,000 sequences were measured (“one-hybrid fitness for binding parS DNA”: median about -0.17, highest 2% from about 0.51 on). The list shows a part of the results.

B1: Caulobacter ParB omega fusion; a variant is named by its letters at X, in order, B8GW30 (parent)
chain: MESVVVGEPGMSEGRRGLGRGLSALLGEVDAAPAQAPGEQLGGSREAPIEILQRNPDQPRRTFREEDLEDLSNSIREKGVLQPILVRPSPDTAGEYQIVAGERAWRAAQRAGLKTVPIMVRELDDLAVLEIGIIENVQRADLNVLEEALSYKVLMEKFERTQENIAQTIGKSXSHVANXMRLLXLPDEVQSYLVSGELTAXHARAIAAAADPVALAKQIIEGGLSVRETEALARKAPNLSAGKSKGGRPPRVKDTDTQALESDLSSVLGLDVSIDHRGSTGTLTITYATLEQLDDLCNRLTRGI

Variants of: B1
Experiment: one-hybrid fitness for binding parS DNA (scaled: cognate 1, non-cognate 0); higher = stronger binding
Details: with parS DNA site
Outline: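 Values were rescaled so that cognate is 1 and non-cognate is 0. Each is a fitness, the log change in a variant's read ratio to wild type from Illumina reads of plasmids before and after selection, with three replicate libraries pooled and variants under 10 reads dropped. Selection of the Caulobacter ParB libraries, four specificity codons randomised, used E. coli USO with a HIS3 reporter, site 19 bp from the promoter, on M9-minus-histidine with 0.1 mM IPTG and 5 mM 3-AT for 48 hours at 37°C.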

GKQC and SIIL cannot be ordered by “one-hybrid fitness for binding parS DNA” value: no more than 0.2 for the first, no more than 0.2 for the second.

QQAF and CRKC cannot be ordered by “one-hybrid fitness for binding parS DNA” value: no more than 0.2 for the first, no more than 0.2 for the second.

LDPS and PLKH cannot be ordered by “one-hybrid fitness for binding parS DNA” value: no more than 0.2 for the first, no more than 0.2 for the second.

GAVW and WTPG cannot be ordered by “one-hybrid fitness for binding parS DNA” value: no more than 0.2 for the first, no more than 0.2 for the second.

CPLQ and DYKT cannot be ordered by “one-hybrid fitness for binding parS DNA” value: no more than 0.2 for the first, no more than 0.2 for the second.

Compared with QYHF, RCNM is higher in “one-hybrid fitness for binding parS DNA” value: no more than 0.2 for the first, 0.349 for the second.

EYKV and WNVE cannot be ordered by “one-hybrid fitness for binding parS DNA” value: no more than 0.2 for the first, no more than 0.2 for the second.

SQPG and QATG cannot be ordered by “one-hybrid fitness for binding parS DNA” value: no more than 0.2 for the first, no more than 0.2 for the second.

GFQR and SNSP cannot be ordered by “one-hybrid fitness for binding parS DNA” value: no more than 0.2 for the first, no more than 0.2 for the second.

Compared with PVPT, RQSM is higher in “one-hybrid fitness for binding parS DNA” value: no more than 0.2 for the first, 0.319 for the second.

DLVL and IAKC cannot be ordered by “one-hybrid fitness for binding parS DNA” value: no more than 0.2 for the first, no more than 0.2 for the second.

Compared with RFFS, HYNC is lower in “one-hybrid fitness for binding parS DNA” value: 0.841 for the first, no more than 0.2 for the second.

QCRW and KSLM cannot be ordered by “one-hybrid fitness for binding parS DNA” value: no more than 0.2 for the first, no more than 0.2 for the second.

WHTT and QLEE cannot be ordered by “one-hybrid fitness for binding parS DNA” value: no more than 0.2 for the first, no more than 0.2 for the second.

PLQV and LHEE cannot be ordered by “one-hybrid fitness for binding parS DNA” value: no more than 0.2 for the first, no more than 0.2 for the second.

IPNY and SITC cannot be ordered by “one-hybrid fitness for binding parS DNA” value: no more than 0.2 for the first, no more than 0.2 for the second.

TRRT and HYLT cannot be ordered by “one-hybrid fitness for binding parS DNA” value: no more than 0.2 for the first, no more than 0.2 for the second.

DHHS and CSSL cannot be ordered by “one-hybrid fitness for binding parS DNA” value: no more than 0.2 for the first, no more than 0.2 for the second.

TKWK and ADYS cannot be ordered by “one-hybrid fitness for binding parS DNA” value: no more than 0.2 for the first, no more than 0.2 for the second.

First: PCRM
Second: RKLY
The “one-hybrid fitness for binding parS DNA” value of the first is lower: no more than 0.2 for the first, 0.402 for the second.

YQQL and PGCG cannot be ordered by “one-hybrid fitness for binding parS DNA” value: no more than 0.2 for the first, no more than 0.2 for the second.

PHVP and FANV cannot be ordered by “one-hybrid fitness for binding parS DNA” value: no more than 0.2 for the first, no more than 0.2 for the second.

VMLT and HAAF cannot be ordered by “one-hybrid fitness for binding parS DNA” value: no more than 0.2 for the first, no more than 0.2 for the second.

AKQS and CTSS cannot be ordered by “one-hybrid fitness for binding parS DNA” value: no more than 0.2 for the first, no more than 0.2 for the second.

SHLF and AEVC cannot be ordered by “one-hybrid fitness for binding parS DNA” value: no more than 0.2 for the first, no more than 0.2 for the second.

RPIC and LDCR cannot be ordered by “one-hybrid fitness for binding parS DNA” value: no more than 0.2 for the first, no more than 0.2 for the second.

HGEG and CLFT cannot be ordered by “one-hybrid fitness for binding parS DNA” value: no more than 0.2 for the first, no more than 0.2 for the second.

TNIN and LQLR cannot be ordered by “one-hybrid fitness for binding parS DNA” value: no more than 0.2 for the first, no more than 0.2 for the second.

HVHY and FSYN cannot be ordered by “one-hybrid fitness for binding parS DNA” value: no more than 0.2 for the first, no more than 0.2 for the second.

LDVV and FVDV cannot be ordered by “one-hybrid fitness for binding parS DNA” value: no more than 0.2 for the first, no more than 0.2 for the second.

HLDP and CTPE cannot be ordered by “one-hybrid fitness for binding parS DNA” value: no more than 0.2 for the first, no more than 0.2 for the second.

RDHM and HVSD cannot be ordered by “one-hybrid fitness for binding parS DNA” value: no more than 0.2 for the first, no more than 0.2 for the second.

IKVA and AHQC cannot be ordered by “one-hybrid fitness for binding parS DNA” value: no more than 0.2 for the first, no more than 0.2 for the second.

QQYI and APMP cannot be ordered by “one-hybrid fitness for binding parS DNA” value: no more than 0.2 for the first, no more than 0.2 for the second.

First: RYSE
Second: RWMS
The “one-hybrid fitness for binding parS DNA” value of the first is lower: no more than 0.2 for the first, 0.788 for the second.

DPWF and LFYY cannot be ordered by “one-hybrid fitness for binding parS DNA” value: no more than 0.2 for the first, no more than 0.2 for the second.

ETAF and ILFD cannot be ordered by “one-hybrid fitness for binding parS DNA” value: no more than 0.2 for the first, no more than 0.2 for the second.

HPYC and MLIT cannot be ordered by “one-hybrid fitness for binding parS DNA” value: no more than 0.2 for the first, no more than 0.2 for the second.

AFGF and RNSF cannot be ordered by “one-hybrid fitness for binding parS DNA” value: no more than 0.2 for the first, no more than 0.2 for the second.

DAME and SHDP cannot be ordered by “one-hybrid fitness for binding parS DNA” value: no more than 0.2 for the first, no more than 0.2 for the second.

NHQG and HLAL cannot be ordered by “one-hybrid fitness for binding parS DNA” value: no more than 0.2 for the first, no more than 0.2 for the second.

NACN and VQLS cannot be ordered by “one-hybrid fitness for binding parS DNA” value: no more than 0.2 for the first, no more than 0.2 for the second.

VVTD and AFHF cannot be ordered by “one-hybrid fitness for binding parS DNA” value: no more than 0.2 for the first, no more than 0.2 for the second.

VQTV and KGKL cannot be ordered by “one-hybrid fitness for binding parS DNA” value: no more than 0.2 for the first, no more than 0.2 for the second.

AQVF and FCDS cannot be ordered by “one-hybrid fitness for binding parS DNA” value: no more than 0.2 for the first, no more than 0.2 for the second.

SLDW and PGYC cannot be ordered by “one-hybrid fitness for binding parS DNA” value: no more than 0.2 for the first, no more than 0.2 for the second.

RHRE and VQMG cannot be ordered by “one-hybrid fitness for binding parS DNA” value: no more than 0.2 for the first, no more than 0.2 for the second.

SWLV and QTTG cannot be ordered by “one-hybrid fitness for binding parS DNA” value: no more than 0.2 for the first, no more than 0.2 for the second.

With HLHC the “one-hybrid fitness for binding parS DNA” value was no more than 0.2.
